In publication PMC7501263:
These are yes or no findings as the source states them, for the method shown. In cells and extracts the contact can be indirect. Some binding calls cover weakened binding; strength is not graded here. Tags and fused reporters may be left off the sequences shown.

By UniProt entry, the sequences of proteins in these tests, tags left out. Residues count along the entry.
UniProt Q99K41, residues 22-1017: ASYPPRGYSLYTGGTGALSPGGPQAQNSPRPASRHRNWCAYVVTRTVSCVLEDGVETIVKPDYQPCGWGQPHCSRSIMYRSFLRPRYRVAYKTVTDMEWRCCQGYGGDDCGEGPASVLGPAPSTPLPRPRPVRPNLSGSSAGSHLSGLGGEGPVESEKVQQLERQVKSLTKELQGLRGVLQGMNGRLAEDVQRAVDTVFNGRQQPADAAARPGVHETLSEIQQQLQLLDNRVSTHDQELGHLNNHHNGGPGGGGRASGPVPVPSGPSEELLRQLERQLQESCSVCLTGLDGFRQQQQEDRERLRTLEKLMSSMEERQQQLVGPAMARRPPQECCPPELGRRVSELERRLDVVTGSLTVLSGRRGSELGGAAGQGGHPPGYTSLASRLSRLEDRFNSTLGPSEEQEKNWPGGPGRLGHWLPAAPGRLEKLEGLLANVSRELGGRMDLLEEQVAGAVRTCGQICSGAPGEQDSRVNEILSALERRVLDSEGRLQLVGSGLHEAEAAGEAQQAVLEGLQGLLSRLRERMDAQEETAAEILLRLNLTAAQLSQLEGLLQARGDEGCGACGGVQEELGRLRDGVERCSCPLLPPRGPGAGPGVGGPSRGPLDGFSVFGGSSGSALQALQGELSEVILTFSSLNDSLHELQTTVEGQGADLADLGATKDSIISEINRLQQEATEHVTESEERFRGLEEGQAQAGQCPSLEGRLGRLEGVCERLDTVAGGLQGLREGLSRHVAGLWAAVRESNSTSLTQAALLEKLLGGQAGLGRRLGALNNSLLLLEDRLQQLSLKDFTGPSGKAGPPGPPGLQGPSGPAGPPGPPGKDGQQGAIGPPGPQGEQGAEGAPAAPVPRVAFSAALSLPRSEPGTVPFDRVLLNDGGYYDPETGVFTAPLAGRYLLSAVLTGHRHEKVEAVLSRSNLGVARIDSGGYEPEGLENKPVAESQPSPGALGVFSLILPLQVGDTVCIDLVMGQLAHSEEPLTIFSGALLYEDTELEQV
UniProt Q8K482, residues 34-1074: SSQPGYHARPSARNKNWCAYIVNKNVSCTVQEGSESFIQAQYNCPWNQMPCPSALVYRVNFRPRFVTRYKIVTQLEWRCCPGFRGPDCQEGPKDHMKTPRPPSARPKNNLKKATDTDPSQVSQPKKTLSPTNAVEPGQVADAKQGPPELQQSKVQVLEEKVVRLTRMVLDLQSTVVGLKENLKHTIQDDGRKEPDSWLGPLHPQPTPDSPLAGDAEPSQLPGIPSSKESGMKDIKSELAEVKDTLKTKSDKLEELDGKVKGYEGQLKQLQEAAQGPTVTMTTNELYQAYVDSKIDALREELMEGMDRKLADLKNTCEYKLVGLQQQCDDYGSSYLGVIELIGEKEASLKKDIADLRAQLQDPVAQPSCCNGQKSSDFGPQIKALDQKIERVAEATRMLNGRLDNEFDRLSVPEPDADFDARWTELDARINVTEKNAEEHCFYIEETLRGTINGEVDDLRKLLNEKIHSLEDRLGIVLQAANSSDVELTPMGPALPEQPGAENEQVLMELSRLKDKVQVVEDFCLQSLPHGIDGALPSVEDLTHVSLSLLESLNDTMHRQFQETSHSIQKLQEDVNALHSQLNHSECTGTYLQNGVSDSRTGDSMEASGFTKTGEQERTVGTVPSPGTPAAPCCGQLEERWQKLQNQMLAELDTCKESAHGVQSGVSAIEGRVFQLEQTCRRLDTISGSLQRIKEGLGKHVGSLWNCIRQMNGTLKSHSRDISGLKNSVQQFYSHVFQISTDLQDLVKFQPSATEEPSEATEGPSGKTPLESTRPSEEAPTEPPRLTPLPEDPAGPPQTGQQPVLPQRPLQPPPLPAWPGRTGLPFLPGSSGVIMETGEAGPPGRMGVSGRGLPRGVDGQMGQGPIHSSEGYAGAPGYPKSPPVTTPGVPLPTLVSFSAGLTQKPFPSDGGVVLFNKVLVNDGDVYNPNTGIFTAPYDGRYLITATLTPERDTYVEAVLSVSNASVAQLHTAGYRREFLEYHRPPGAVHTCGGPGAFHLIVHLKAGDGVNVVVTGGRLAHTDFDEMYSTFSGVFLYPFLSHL

B1: EMILIN-3, full length murine, C-terminal HA tag (protein, UniProt P59900 22-758)
chain: KGTPLLARPAQPSASRYSLYTTGWRPRLRPGPHKSLCAYVVHRNVTCVLQEGAESYIKAEYRNCGWGPNCPSTVRYRTVFRPRYKIGYKTVTDLAWRCCPGLTGESCPEHLTDHGATPPHQEPEPQIPLGQLGPGPRPSPYSREAPRPRGRKGQGPFGERLEQRLSQAYGTLSGLVASHENPNRITGDSRAPVVPIGFGVIPEGLVAPEDRGRGPLIPPLSEILSKVTEVSNTLQTKVQLLDEVRGLALGHEAHLQRLREAPPSPLTSLALLEEYVDQRLQRLWGSLLDGFEQKLQGVQSECDLRVQEVRQQCEEGQAASQRLHQSLDGRELALRRELSQLGTQLQGLTLTGGGTCCSQLALISARVDSLERNLQAVTETQGGPGTLAADELARLSAAMLQGGVDGLLEGLETINGTENGARGCCLRMEVGGWGVGGFGSTLEQRVQSLEERLATLTGELSPESAIPDRSARPLVHSELAVLEQRLVSLETSCTPSTTTAILDNLVAEVKAWQSRSEALLHQVARHTALLQQLNGTVAEVQGQLAEGTGSSLQGEITLLKVNLNSVSKSLTGLSDSVSQYSDAFSAANTSLDERERRVEAEVHTIQEQISSQGSRLQAGHRQVLNLRGELEQLKAGMANVARGLSRCRDTAQELQHTVGHFDQRVAQVEGACERLGLLATHLNSLPTEQLRSREGLWGHIDKLNHTLAQHTQDIARLRDDLLDCRAQLAEVRPGRAD

Key:
Experiment in all cases: pull-down; purified recombinant Strep-tagged fibulin-1, fibulin-2 or nidogen-1 mixed with media of transfected HEK293 cells with HA-tagged EMILINs, 2 h at 4 °C; precipitation with Strep-Tactin Sepharose; washed with 50 mM Tris-HCl pH 7.5, 150 mM NaCl, 2 mM EDTA, 1% Triton X-100; western blot with anti-HA and anti-Strep; only the target purified
[1] = molecular target: T1, Recombinant murine C-terminally 2xStrepII tagged full length nidogen-1 (murine) (UniProt P10493)
T1 sequence: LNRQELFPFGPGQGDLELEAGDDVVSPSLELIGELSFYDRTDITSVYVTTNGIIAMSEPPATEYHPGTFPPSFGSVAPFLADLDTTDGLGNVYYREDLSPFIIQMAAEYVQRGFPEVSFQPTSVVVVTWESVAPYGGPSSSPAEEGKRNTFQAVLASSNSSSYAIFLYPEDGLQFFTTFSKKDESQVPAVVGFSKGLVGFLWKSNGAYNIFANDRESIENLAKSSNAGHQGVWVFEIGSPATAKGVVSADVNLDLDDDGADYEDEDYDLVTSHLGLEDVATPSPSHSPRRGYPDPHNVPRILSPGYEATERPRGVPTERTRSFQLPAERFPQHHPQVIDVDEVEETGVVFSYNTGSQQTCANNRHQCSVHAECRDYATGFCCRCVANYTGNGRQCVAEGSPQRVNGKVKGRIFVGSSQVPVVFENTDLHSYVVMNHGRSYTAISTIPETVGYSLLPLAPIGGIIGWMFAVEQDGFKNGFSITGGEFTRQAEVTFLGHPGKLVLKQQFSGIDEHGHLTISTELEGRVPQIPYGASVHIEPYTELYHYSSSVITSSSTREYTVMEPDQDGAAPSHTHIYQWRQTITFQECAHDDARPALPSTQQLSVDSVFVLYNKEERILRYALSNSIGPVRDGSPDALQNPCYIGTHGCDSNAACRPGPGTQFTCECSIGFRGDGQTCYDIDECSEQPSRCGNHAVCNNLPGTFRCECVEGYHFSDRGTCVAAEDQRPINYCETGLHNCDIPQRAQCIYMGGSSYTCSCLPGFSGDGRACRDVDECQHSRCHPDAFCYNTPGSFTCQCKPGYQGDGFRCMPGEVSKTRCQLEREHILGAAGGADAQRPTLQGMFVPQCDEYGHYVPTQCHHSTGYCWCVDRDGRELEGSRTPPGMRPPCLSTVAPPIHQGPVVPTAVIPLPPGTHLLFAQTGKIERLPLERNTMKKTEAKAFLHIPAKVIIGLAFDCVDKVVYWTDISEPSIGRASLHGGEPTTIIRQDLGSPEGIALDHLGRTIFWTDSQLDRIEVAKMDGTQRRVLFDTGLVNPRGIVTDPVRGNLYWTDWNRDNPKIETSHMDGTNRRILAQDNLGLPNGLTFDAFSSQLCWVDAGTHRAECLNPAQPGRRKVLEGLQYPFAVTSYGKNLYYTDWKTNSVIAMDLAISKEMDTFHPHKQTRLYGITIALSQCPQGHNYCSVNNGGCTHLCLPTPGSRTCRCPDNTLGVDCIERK

[2] = molecular target: T2, Recombinant murine C-terminally 2xStrepII tagged full length fibulin-2 (murine) (UniProt P37889)
T2 sequence: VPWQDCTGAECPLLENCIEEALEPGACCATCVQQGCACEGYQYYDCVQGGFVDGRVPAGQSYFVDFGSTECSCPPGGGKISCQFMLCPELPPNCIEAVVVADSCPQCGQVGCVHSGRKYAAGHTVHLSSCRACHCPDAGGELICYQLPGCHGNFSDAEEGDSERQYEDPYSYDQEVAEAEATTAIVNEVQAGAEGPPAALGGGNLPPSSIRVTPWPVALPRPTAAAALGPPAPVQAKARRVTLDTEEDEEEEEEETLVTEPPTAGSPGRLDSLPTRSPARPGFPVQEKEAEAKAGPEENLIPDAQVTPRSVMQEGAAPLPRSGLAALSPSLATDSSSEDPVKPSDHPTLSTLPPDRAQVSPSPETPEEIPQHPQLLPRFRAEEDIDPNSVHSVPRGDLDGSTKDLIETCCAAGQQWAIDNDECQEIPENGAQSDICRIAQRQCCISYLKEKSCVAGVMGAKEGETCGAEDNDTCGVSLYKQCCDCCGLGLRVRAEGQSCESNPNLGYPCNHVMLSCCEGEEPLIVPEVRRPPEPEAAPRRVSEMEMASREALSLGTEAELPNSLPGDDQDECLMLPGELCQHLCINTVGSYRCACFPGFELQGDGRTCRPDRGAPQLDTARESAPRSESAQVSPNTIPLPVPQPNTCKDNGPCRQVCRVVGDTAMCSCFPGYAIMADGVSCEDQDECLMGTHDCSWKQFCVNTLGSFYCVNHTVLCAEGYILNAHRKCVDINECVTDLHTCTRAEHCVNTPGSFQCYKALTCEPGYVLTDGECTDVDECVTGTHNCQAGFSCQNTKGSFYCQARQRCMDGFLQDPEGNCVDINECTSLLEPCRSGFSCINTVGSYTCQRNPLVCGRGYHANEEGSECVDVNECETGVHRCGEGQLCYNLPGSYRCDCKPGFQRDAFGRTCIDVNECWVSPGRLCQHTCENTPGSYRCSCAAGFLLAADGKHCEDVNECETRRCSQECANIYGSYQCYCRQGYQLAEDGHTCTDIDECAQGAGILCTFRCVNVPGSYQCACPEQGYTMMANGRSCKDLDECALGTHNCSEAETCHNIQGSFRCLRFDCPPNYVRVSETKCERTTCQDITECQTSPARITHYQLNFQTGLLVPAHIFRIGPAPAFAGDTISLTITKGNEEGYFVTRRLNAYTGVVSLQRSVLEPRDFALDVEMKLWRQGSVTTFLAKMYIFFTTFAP

[3] = molecular target: T3, Recombinant murine C-terminally 2xStrepII tagged full length fibulin-1 (murine) (UniProt Q08879)
T3 sequence: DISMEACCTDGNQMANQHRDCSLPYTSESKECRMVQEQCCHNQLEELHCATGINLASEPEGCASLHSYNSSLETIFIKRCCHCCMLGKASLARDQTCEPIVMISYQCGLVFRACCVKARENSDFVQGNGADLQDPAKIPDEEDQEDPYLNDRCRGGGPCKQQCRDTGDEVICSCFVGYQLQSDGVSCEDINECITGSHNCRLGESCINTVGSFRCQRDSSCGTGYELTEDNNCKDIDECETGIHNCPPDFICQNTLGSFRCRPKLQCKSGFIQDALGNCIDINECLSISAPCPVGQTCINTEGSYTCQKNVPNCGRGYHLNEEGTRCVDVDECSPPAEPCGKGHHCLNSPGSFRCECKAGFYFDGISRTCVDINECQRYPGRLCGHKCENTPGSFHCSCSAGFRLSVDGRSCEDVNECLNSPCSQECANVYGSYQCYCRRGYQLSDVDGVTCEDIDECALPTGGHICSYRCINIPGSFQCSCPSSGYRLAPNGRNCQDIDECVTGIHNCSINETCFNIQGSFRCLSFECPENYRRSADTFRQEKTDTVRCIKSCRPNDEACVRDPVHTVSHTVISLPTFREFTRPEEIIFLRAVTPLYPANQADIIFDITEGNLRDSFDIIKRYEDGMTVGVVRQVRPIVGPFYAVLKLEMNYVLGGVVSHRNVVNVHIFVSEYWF

Row | Molecule | binding [1] | binding [2] | binding [3]
1 | EMILIN-1, full length murine, C-terminal HA tag (from UniProt Q99K41 22-1017) | no binding | binds | –
2 | EMILIN-2, full length murine, C-terminal HA tag (from UniProt Q8K482 34-1074) | no binding | binds | –
3 | B1 | – | binds | binds
